From PubChem BioAssay AID463173 (ICCB-Longwood Screening Facility, Harvard Medical School, 2010)
Hit rate of the full screen: of about 52,000 compounds, about 1,700 (3.3%) were called active. Cut-off read from the data, not from the text of the source: active = survival mostly below about 52% (no sharp cut-off); inactive = mostly above about 56%. The list shows a part of the results.

Each molecule was assayed on Wild type (assay: S. aureus survival, RN4220 and DeltatarO strains – OD600, teichoic acid synthesis inhibitors, primary screen (AID 463173)). Conditions: S. aureus RN4220 wild type/DeltatarO growth, OD600, 18 h, active compounds read low, screened at 18.75 µg/mL (by protocol).

SMILES | survival
CC1(C)CC(=O)c2cnc(N)nc2C1 | inactive: 112%
Nc1nonc1/C(=N/O)N1CCCC1 | inactive: 102%
Cc1ccc(NC(=O)CN2C(=O)COc3ccc(S(=O)(=O)N4CCCCCC4)cc32)cc1C | inactive: 91%
COCCCNC(=O)CSc1nc2ccccc2c(=O)n1Cc1ccco1 | inactive: 75%
CCOc1ccc(CCNC(=O)c2c(C)oc3ncnc(N4CCOCC4)c23)cc1 | inactive: 76%
Cc1cc(C)cc(NC(=O)CN(C)S(=O)(=O)c2ccc3[nH]c4c(c3c2)CCCC4)c1 | inactive: 75%
COc1ccc(C(=O)Nc2ccc(OCc3cc(=O)n4ccccc4n3)cc2)cc1 | inactive: 72%
CCC(C)(C)c1nnc(N)s1 | inactive: 104%
N#C/C(=C\c1ccc(-c2ccc(F)cc2F)o1)c1nc2ccccc2[nH]1 | inactive: 38%
CCOc1cccc(CNc2ccc(O)cc2)c1OCc1ccccc1Cl | inactive: 54%
COc1ccc(CNC(=O)c2ccc3[nH]c(C)c(C)c3c2)c(OC)c1 | inactive: 71%
CN1C(N)=NC(=O)C1(CO)CO | inactive: 104%
CC(=O)n1c2ccccc2c2cc(Cl)ccc21 | inactive: 112%
CCc1nnc2c(NCCc3ccc(OC)c(OC)c3)nc3ccccc3n12 | inactive: 133%
Cc1ccc2cc(C#N)c(SCC(=O)N3CCCC3)nc2c1 | inactive: 110%
O=C1CC(c2ccco2)CC(O)=C1C=NCCN1CCNCC1 (configuration not stated) | inactive: 113%
COc1ccc(-c2onc(C)c2C)cc1S(=O)(=O)NCc1ccc(Br)cc1 | inactive: 75%
NNC(=O)C1CCN(S(=O)(=O)c2ccccc2N)CC1 | inactive: 106%
Cc1ccc(C)c(N2CCN(C(=O)CCS(=O)(=O)c3ccc4c(c3)CC(=O)N4C)CC2)c1 | inactive: 80%
CCc1ccc(NC(=O)CC2C(=O)N(c3ccc(Cl)cc3)C(=O)N2Cc2cccs2)cc1 (configuration not stated) | inactive: 47%
CCOC(=O)c1ccc(S(=O)(=O)N2CCC(C(=O)OCC)CC2)cc1 | inactive: 95%
CCOc1ccc(NS(=O)(=O)c2ccc3c(c2)CCN3C(C)=O)cc1 | inactive: 128%
COc1ccc(-c2cc(C(F)(F)F)nc(SCCC(=O)Nc3cc(C)on3)n2)cc1 | inactive: 106%

SMILES | survival
COc1cccc(C2CC(=O)Nc3c2c(=O)n(C)c2ncnn32)c1OC (configuration not stated) | inactive: 140%
COC(=O)c1c(NC(=O)COc2cc(C)c(Cl)c(C)c2)sc2c1CCCC2 | inactive: 140%
COc1ccc(OC)c(S(=O)(=O)Nc2cc3c(C(C)=O)c(C)oc3c3ccccc23)c1 | inactive: 69%
Cc1ccc(OCC(=O)N(Cc2ccco2)C2CCS(=O)(=O)C2)cc1 (configuration not stated) | inactive: 101%
CC(Oc1ccc(F)cc1)C(=O)Nc1cc(-c2ccc(F)c(F)c2)no1 (configuration not stated) | inactive: 86%
CC(=O)N1C(Nc2ccc(Cl)cc2)CCN1c1ccccc1 (configuration not stated) | inactive: 110%
CN1C(=O)N(C)C2OC3OC4C(OC3OC21)N(C)C(=O)N4C (configuration not stated) | inactive: 108%
Cn1cc(CCC(=O)NCc2ccc(Cl)cc2)c2ccccc21 | inactive: 107%
Cc1cc(C)cc(NS(=O)(=O)c2ccc(-n3cccn3)cc2)c1 | inactive: 83%
COc1ccc(-c2cccc(NS(=O)(=O)c3ccc(C)s3)c2)nn1 | inactive: 91%
COCCCNC(=O)c1oc2c(c1C)-c1nn(Cc3ccc(Cl)cc3)cc1CC2 | inactive: 78%
CCOc1cc(CNc2ccc(C(=O)O)cc2)ccc1OCc1ccccc1 | inactive: 57%
O=C(O)c1c(-c2ccccc2)oc2ccc(OCc3ccc(Cl)c(Cl)c3)cc12 | active: 0%
Cc1ccc(C)[n+](C)c1 | inactive: 102%
CC1CCC(Nc2ncnc3onc(-c4ccc(F)cc4)c23)CC1 (configuration not stated) | inactive: 99%
COc1cccc(-n2c(=O)c3c(C)c(C)sc3n(CC(=O)Nc3ccccc3OC)c2=O)c1 | inactive: 87%
CCOc1cccc(C(=O)N(Cc2ccc(N(C)C)cc2)CC2CCCO2)c1 (configuration not stated) | inactive: 96%
Cc1ccccc1CC1C(=O)Nc2ccc(Br)cc21 (configuration not stated) | inactive: 69%
CCc1ccc(CNCc2c(C(=O)O)c(C)n(Cc3c(F)cccc3Cl)c2C)cc1 | inactive: 101%
Cn1c(=O)n(C)c2cc(N3CCOCC3)c(NS(=O)(=O)c3ccc(C(C)(C)C)cc3)cc21 | inactive: 81%
CC1CCN(S(=O)(=O)c2ccc3c(ccc(=O)n3CC(=O)Nc3ccc(C(C)C)cc3)c2)CC1 | active: -2%
CCOc1ccc(N(C(=O)c2ccccc2F)S(=O)(=O)c2ccc3c(c2)n(C)c(=O)n3C)cc1 | inactive: 80%
CCc1ccccc1NC(=O)N1CCC(CN2CCc3ccccc3C2)CC1 | inactive: 60%

SMILES | survival
Cc1ccc(C(=O)CCC(=O)Nc2ccc(C)cc2C)cc1 | inactive: 115%
CCOC(=O)c1c(-c2ccc(C)cc2)csc1NC(=O)c1cc(-c2ccc(Cl)cc2)on1 | inactive: 90%
Nc1nc(SCC(=O)Nc2cccc(C(F)(F)F)c2)n[nH]1 | inactive: 81%
COc1ccc(-c2nc(CCNC(=O)c3cccs3)cs2)cc1 | inactive: 120%
CNC(=O)Cn1nc(-c2ccc(Cl)cc2)c2ccccc2c1=O | inactive: 76%
CCOC(=O)c1ccc(NC(=O)CC2Sc3ccc(C(F)(F)F)cc3NC2=O)cc1 (configuration not stated) | inactive: 81%
N=C(N)SCC(=O)Nc1ccccc1 | inactive: 120%
COc1ccc(NC(=O)CSC2=Nc3ccccc3C3=NC(CCC(=O)NCc4ccc(F)cc4)C(=O)N23)cc1Cl (configuration not stated) | inactive: 82%
CCCCC(CC)CNC(=O)CN(C)S(=O)(=O)c1ccc2c(c1)c(=O)n(C)c(=O)n2C (configuration not stated) | inactive: 81%
Cc1ccc(CN(C(=O)COc2ccc(Cl)cc2)c2ccccn2)o1 | inactive: 79%
O=C(N=Nc1c(O)[nH]c2ccccc12)C1C2CCCCC21 (configuration not stated) | inactive: 116%
Cc1cc(NC(=O)CCNS(=O)(=O)c2ccc3c(c2)CCCC(=O)N3)ccc1Br | inactive: 67%
Cc1nn(C)c2c1c(-c1ccccc1)cc(=O)n2Cc1ccccc1Cl | inactive: 72%
CCCSc1nsc(SCCC)c1C(N)=O | inactive: 103%
COc1cccc(N2CCN(C(=O)C3CCN(S(=O)(=O)c4cccc5nonc45)CC3)CC2)c1 | inactive: 57%
COc1ccc(CCNC(=O)Cn2nc(C)n3c(cc4cc(F)ccc43)c2=O)cc1OC | inactive: 121%
CCOc1ccccc1NC(=O)c1c(NCc2ccc(C)o2)sc2c1CCC(C)C2 (configuration not stated) | inactive: 143%
Cc1ccc(C)c(N2CCN(C(=O)c3cc4c(=O)n(Cc5ccco5)ccc4nc3C)CC2)c1 | inactive: 84%
COc1cccc(C(=O)Nc2cccc(NC(=O)c3ccc(Cl)cc3Cl)c2)c1 | inactive: 95%
CCCCN(C)C(=O)Cn1c(C2CC(=O)N(c3ccc(C)cc3)C2)nc2ccccc21 (configuration not stated) | inactive: 86%
COc1ccc(S(=O)(=O)Nc2ccc3oc4c(c3c2)C(=O)CC(C)(C)C4)cc1 | inactive: 135%
COC(=O)c1cc(S(=O)(=O)NCC2CCN(Cc3ccc(C)cc3)CC2)cn1C | inactive: 80%
CCC(C)Nc1sc(S(=O)(=O)CC)nc1S(=O)(=O)c1ccc(C)cc1 (configuration not stated) | inactive: 78%

SMILES | survival
CCOc1ccc(CNC(=O)CCCn2nc(C)c3sc4ccccc4c3c2=O)cc1 | inactive: 89%
Cc1ccc(C)c(NC(=O)Cn2c(=O)nc(-c3ccccc3)c3ccccc32)c1 | inactive: 74%
COc1cc(C(=O)OC(C)CN2C(C)CCCC2C)cc(OC)c1OC (configuration not stated) | inactive: 109%
Cc1cccc(NS(=O)(=O)c2ccc3c(c2)[C@H]2C=CC[C@H]2[C@@H](c2ccc(F)cc2)N3)c1 | inactive: 58%
CCCOc1ccc(-c2nn(-c3ccccc3)cc2C2NC(=O)NC(C)=C2C(=O)OC)cc1 (configuration not stated) | inactive: 61%
CCc1ccc(C(=O)c2cn(CC(=O)Nc3cc(OC)ccc3OC)c3ccc(C)cc3c2=O)cc1 | inactive: 75%
COc1ccc(C)cc1NC(=O)C1CCN(S(=O)(=O)c2ccc3c(c2)CCCN3C(C)=O)CC1 | inactive: 68%
O=C(Nc1ccc(N2CCN(c3ccc(F)cc3)CC2)c(C(=O)O)c1)c1ccccc1F | inactive: 76%
CC1=C(C(=O)Nc2cccnc2)C(c2ccccc2)n2nc(SCc3ccccc3Cl)nc2N1 (configuration not stated) | inactive: 140%
CCOC(=O)c1ccc(NC(=O)CSc2nc3ccccc3c(=O)n2CCNC(C)=O)cc1 | inactive: 90%
CCc1ccc(NC(=O)CN2C(=O)C(c3ccc(F)cc3)=NC2(C)C)cc1 | inactive: 82%
Cc1ccc(CCNC(=O)Cn2ncc3c([nH]c4ccc(C)cc43)c2=O)cc1 | inactive: 131%
C=CCN1C(=O)/C(=C2/SC(C)=C(C)N2CC)SC1=Nc1c(C)n[nH]c1C | inactive: 93%
CCCCOc1ccc(Cn2c(=O)oc3ccc(C)cc32)cc1 | inactive: 58%
COc1ccc(OC)c(NC(=O)CSc2cn(CC(=O)N3CCCCCC3)c3ccccc23)c1 | inactive: 90%
Cc1cc(NC(=O)CSc2nnc(-c3cccs3)n2C)no1 | inactive: 93%
CCCN(CCC)CCNC(=O)Cn1cc2c(n1)-c1c(oc(C(=O)N3CCCC3)c1C)CC2 | inactive: 106%
Cc1cccc(-c2nnn3c2nc(NCCc2ccc(S(N)(=O)=O)cc2)c2ccccc23)c1 | inactive: 92%
O=C(CS(=O)(=O)c1cccc2nsnc12)Nc1ccc(F)cc1 | inactive: 113%
CC(=O)N(CCc1ccccc1)Cc1nc2ccccc2c(=O)[nH]1 | inactive: 113%
N=c1nc(SCCC(=O)O)ss1 | inactive: 112%
CCSc1ncc(Cl)c(C(=O)N(Cc2ccc(N(C)C)cc2)Cc2ccco2)n1 | inactive: 115%
COCCNC(=O)c1ccc2c(c1)N(Cc1cc(C)ccc1C)C(=O)c1ccccc1S2(=O)=O | inactive: 84%
